The labels stand for the following.
T1: RBFOX1 RRM (Homo sapiens, UniProt Q9NWB1 109-208)
T1 sequence: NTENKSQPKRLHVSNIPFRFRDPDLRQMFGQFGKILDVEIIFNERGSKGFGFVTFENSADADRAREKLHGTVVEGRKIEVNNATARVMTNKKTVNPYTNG

B1: CCAAUGA (DNA:RNA)
RNA: GGGAGACCGGAAUUCAGAUUGUCCCCAAUGAUUAAAUCCCGUCGUAGCCACCA
DNA 1: CAATCTGAATTCCGGTCTCCC
DNA 2: TGGTGGCTACGACGGGATT
B2: CCUUAGG (DNA:RNA)
RNA: B1 RNA with A27U, A28U, U29A, A31G
DNA 1: CAATCTGAATTCCGGTCTCCC
DNA 2: TGGTGGCTACGACGGGATT
B3: ACAUUGC (DNA:RNA)
RNA: B1 RNA with C25A, A28U, A31C
DNA 1: CAATCTGAATTCCGGTCTCCC
DNA 2: TGGTGGCTACGACGGGATT
B4: GCCAUUU (DNA:RNA)
RNA: B1 RNA with C25G, A27C, G30U, A31U
DNA 1: CAATCTGAATTCCGGTCTCCC
DNA 2: TGGTGGCTACGACGGGATT
B5: GCACAUU (DNA:RNA)
RNA: B1 RNA with C25G, A28C, U29A, G30U, A31U
DNA 1: CAATCTGAATTCCGGTCTCCC
DNA 2: TGGTGGCTACGACGGGATT
B6: UCUUAAG (DNA:RNA)
RNA: B1 RNA with C25U, A27U, A28U, U29A, G30A, A31G
DNA 1: CAATCTGAATTCCGGTCTCCC
DNA 2: TGGTGGCTACGACGGGATT
B7: CCGCAAA (DNA:RNA)
RNA: B1 RNA with A27G, A28C, U29A, G30A
DNA 1: CAATCTGAATTCCGGTCTCCC
DNA 2: TGGTGGCTACGACGGGATT
B8: GGUUUCA (DNA:RNA)
RNA: B1 RNA with C25G, C26G, A27U, A28U, G30C
DNA 1: CAATCTGAATTCCGGTCTCCC
DNA 2: TGGTGGCTACGACGGGATT
B9: CUCAUUU (DNA:RNA)
RNA: B1 RNA with C26U, A27C, G30U, A31U
DNA 1: CAATCTGAATTCCGGTCTCCC
DNA 2: TGGTGGCTACGACGGGATT
B10: CGAGUGA (DNA:RNA)
RNA: B1 RNA with C26G, A28G
DNA 1: CAATCTGAATTCCGGTCTCCC
DNA 2: TGGTGGCTACGACGGGATT
B11: ACGUUAA (DNA:RNA)
RNA: B1 RNA with C25A, A27G, A28U, G30A
DNA 1: CAATCTGAATTCCGGTCTCCC
DNA 2: TGGTGGCTACGACGGGATT
B12: UGAUUAU (DNA:RNA)
RNA: B1 RNA with C25U, C26G, A28U, G30A, A31U
DNA 1: CAATCTGAATTCCGGTCTCCC
DNA 2: TGGTGGCTACGACGGGATT
B13: UGUAGGG (DNA:RNA)
RNA: B1 RNA with C25U, C26G, A27U, U29G, A31G
DNA 1: CAATCTGAATTCCGGTCTCCC
DNA 2: TGGTGGCTACGACGGGATT
B14: AUUGCCA (DNA:RNA)
RNA: B1 RNA with C25A, C26U, A27U, A28G, U29C, G30C
DNA 1: CAATCTGAATTCCGGTCTCCC
DNA 2: TGGTGGCTACGACGGGATT
B15: CGCCACU (DNA:RNA)
RNA: B1 RNA with C26G, A27C, A28C, U29A, G30C, A31U
DNA 1: CAATCTGAATTCCGGTCTCCC
DNA 2: TGGTGGCTACGACGGGATT
B16: UGAACGA (DNA:RNA)
RNA: B1 RNA with C25U, C26G, U29C
DNA 1: CAATCTGAATTCCGGTCTCCC
DNA 2: TGGTGGCTACGACGGGATT
B17: CCUGGCG (DNA:RNA)
RNA: B1 RNA with A27U, A28G, U29G, G30C, A31G
DNA 1: CAATCTGAATTCCGGTCTCCC
DNA 2: TGGTGGCTACGACGGGATT
B18: ACACCGG (DNA:RNA)
RNA: B1 RNA with C25A, A28C, U29C, A31G
DNA 1: CAATCTGAATTCCGGTCTCCC
DNA 2: TGGTGGCTACGACGGGATT
B19: UUCACCA (DNA:RNA)
RNA: B1 RNA with C25U, C26U, A27C, U29C, G30C
DNA 1: CAATCTGAATTCCGGTCTCCC
DNA 2: TGGTGGCTACGACGGGATT
B20: UAGAUCU (DNA:RNA)
RNA: B1 RNA with C25U, C26A, A27G, G30C, A31U
DNA 1: CAATCTGAATTCCGGTCTCCC
DNA 2: TGGTGGCTACGACGGGATT
B21: GGGAGAU (DNA:RNA)
RNA: B1 RNA with C25G, C26G, A27G, U29G, G30A, A31U
DNA 1: CAATCTGAATTCCGGTCTCCC
DNA 2: TGGTGGCTACGACGGGATT
B22: GAGCACC (DNA:RNA)
RNA: GGGAGACCGGAAUUCAGAUUGUCCGAGCACCUUAAAUCCCGUCGUAGCCACCA
DNA 1: CAATCTGAATTCCGGTCTCCC
DNA 2: TGGTGGCTACGACGGGATT
B23: UUUGAGG (DNA:RNA)
RNA: B1 RNA with C25U, C26U, A27U, A28G, U29A, A31G
DNA 1: CAATCTGAATTCCGGTCTCCC
DNA 2: TGGTGGCTACGACGGGATT
B24: GAUCAGA (DNA:RNA)
RNA: B22 RNA with G27U, C30G, C31A
DNA 1: CAATCTGAATTCCGGTCTCCC
DNA 2: TGGTGGCTACGACGGGATT
B25: AGUAUGC (DNA:RNA)
RNA: B1 RNA with C25A, C26G, A27U, A31C
DNA 1: CAATCTGAATTCCGGTCTCCC
DNA 2: TGGTGGCTACGACGGGATT
B26: GAUUUAC (DNA:RNA)
RNA: B22 RNA with G27U, C28U, A29U, C30A
DNA 1: CAATCTGAATTCCGGTCTCCC
DNA 2: TGGTGGCTACGACGGGATT
B27: UGAGUCU (DNA:RNA)
RNA: B1 RNA with C25U, C26G, A28G, G30C, A31U
DNA 1: CAATCTGAATTCCGGTCTCCC
DNA 2: TGGTGGCTACGACGGGATT
B28: AACACUU (DNA:RNA)
RNA: B1 RNA with C25A, C26A, A27C, U29C, G30U, A31U
DNA 1: CAATCTGAATTCCGGTCTCCC
DNA 2: TGGTGGCTACGACGGGATT
B29: GCGAAGG (DNA:RNA)
RNA: B1 RNA with C25G, A27G, U29A, A31G
DNA 1: CAATCTGAATTCCGGTCTCCC
DNA 2: TGGTGGCTACGACGGGATT
B30: UCCUAAG (DNA:RNA)
RNA: B1 RNA with C25U, A27C, A28U, U29A, G30A, A31G
DNA 1: CAATCTGAATTCCGGTCTCCC
DNA 2: TGGTGGCTACGACGGGATT
B31: CAGUACU (DNA:RNA)
RNA: B22 RNA with G25C, C28U, C31U
DNA 1: CAATCTGAATTCCGGTCTCCC
DNA 2: TGGTGGCTACGACGGGATT

From paper PMC9911399, “Two distinct binding modes provide the RNA-binding protein RbFox with extraordinary sequence specificity” come the findings set out here.

Changes are numbered by the printed parent chain; changes in the protein carry UniProt numbers. The list shows a part of the results.

The assay concerns the target T1, RBFOX1 RRM. As to the kind of experiment: EMSA; HiTS-Eq, 1 nM pool, 10 min; buffer printed only for the single-RNA assays: 10 mM Tris pH 7.5, 150 mM NaCl, 3.4 mM EDTA, 0.001% NP-40, 30 C. The settings on record: tags: His6 N-terminal (pET28a); label: 5' 32P. In a few lines: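 Purified wild-type or mutant RbFox RRM at increasing concentrations was equilibrated with 1 nM of 5′-radiolabelled RNA carrying 7 randomized nucleotides for 10 min in 50 µL. Unbound RNA was separated by 8% native PAGE and sequenced. Relative association constants came from read-count changes of each RNA species compared with the control reaction, normalised to the cognate motif.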
Turning to B1, the binding signal is 0.00546 KA relative to UGCAUGU.
Under B2 stands 0.0112 KA relative to UGCAUGU.
For B3, the binding signal was 0.00632 KA relative to UGCAUGU.
On to B4, for which the binding signal was 0.0041 KA relative to UGCAUGU.
Under B5 stands 0.00696 KA relative to UGCAUGU.
Under B6 stands 0.0106 KA relative to UGCAUGU; under B7, 0.00567 KA relative to UGCAUGU.
As for B8, the binding signal is 0.0118 KA relative to UGCAUGU.
Under B9 stands 0.0047 KA relative to UGCAUGU; under B10, 0.0193 KA relative to UGCAUGU; under B11, 0.00196 KA relative to UGCAUGU.
In the case of B12 it was 0.0128 KA relative to UGCAUGU.
For B13, the binding signal is 0.00963 KA relative to UGCAUGU.
Consider B14, for which the binding signal was 0.00578 KA relative to UGCAUGU.
In the case of B15, the binding signal is 0.00292 KA relative to UGCAUGU.
Under B16 stands 0.0199 KA relative to UGCAUGU.
Under B17 stands 0.0185 KA relative to UGCAUGU; under B18, 0.000311 KA relative to UGCAUGU; under B19, 0.00293 KA relative to UGCAUGU.
On to B20, for which the binding signal was 0.0116 KA relative to UGCAUGU.
In the case of B21, the binding signal was 0.0316 KA relative to UGCAUGU.
With B22, the binding signal was 0.00895 KA relative to UGCAUGU.
Under B23 stands 0.00903 KA relative to UGCAUGU; under B24, 0.00955 KA relative to UGCAUGU.
Regarding B25, the binding signal is 0.0206 KA relative to UGCAUGU.
B26: the binding signal is 0.00808 KA relative to UGCAUGU.
For the molecule B27, the binding signal is 0.0175 KA relative to UGCAUGU.
For the molecule B28, the binding signal is 0.000573 KA relative to UGCAUGU.
For the molecule B29, the binding signal was 0.0178 KA relative to UGCAUGU.
With B30, the binding signal was 0.0102 KA relative to UGCAUGU.
Turning to B31, the binding signal is 0.00554 KA relative to UGCAUGU.
